# Variants at the background level are over-represented here.
# B1: TPR 5TU (parent)
# chain: GGAUCUUCUCGAUCUAACAAAAAAGACAAAUCUGCCACAAAGCUUGAGAGCAUCUUCGGAUGCAGAGGCGGCAGCCUUCGGUGGCGCGAUAGCGCCAACGUUCUCAACUAUGACACGCAAAACGCGUGCUCCGUUGAAUGGAGUUUAUCAUG
# Variants of: B1
# Test: polymerase ribozyme fitness, log enrichment relative to wild type (log ratio); higher = more active; in vitro selection for triplet polymerase activity
# Summary of the method: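 Both subunits of a heterodimeric triplet polymerase ribozyme were given their own mutant library, built by PCR and transcribed. Each library was annealed with a biotinylated primer, the partner subunit and triplets, incubated frozen at −7 °C, and its extended constructs gel-excised, captured on streptavidin beads and amplified by RT-PCR, all in one round done in triplicate. Fitness is the logarithm of genotype enrichment relative to wild-type enrichment, with replicates averaged by inverse-variance weighting. That logarithm is base 2, and Illumina-sequenced genotypes needed ≥10 input reads and ≥1 read per output.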
row,Variant,polymerase ribozyme fitness (log ratio)
1,C5A A29C U53G C95G G136U G143C,≤ -4.2
2,C5A A20G G48A C57A U61A U78A G88C,≤ -4.2
3,C5A A28C C79A,≤ -4.2
4,C5G A26U G58C U101A U135A,≤ -4.2
5,C5A A91G G92U C96U A121U U134C,≤ -4.2
6,C5G A21C U56A G68A A113U,≤ -4.2
7,C5A G84A A89C G128A U144C,≤ -4.2
8,C5A A37U,-0.964
9,C5A G65A C76A G83C C103A,≤ -4.2
10,C5A U55A G68U C87U G100U U101G,≤ -4.2
11,C5A C10G A29U C57G G59C G84C,≤ -4.2
12,C5G A37C A40G G84A G141U,≤ -4.2
13,C5A A24U A41G A49C U53A C85A,≤ -4.2
14,C5A A20U G80U C93U U109G,≤ -4.2
15,C5G A23U C85U C99G A106U,≤ -4.2
16,C5A A23G A41C G88A U102C U151C,≤ -4.2
17,C5A A20C A40G A41U A52C G80A G83A C103U A107U,≤ -4.2
18,C5A C69A C93A U102C,≤ -4.2
19,C5G A29U A47U G50A C87A A89G C125G,≤ -4.2
20,C5A A23G A66C C79A C85G G92U U102A A137G,≤ -4.2
21,C5A C8A A60C C76A C85A,≤ -4.2
22,C5A C8U U15C A22U A23U U53G G58C A107G,≤ -4.2
23,C5G A24C U31A C79G G84A U111A C118G,≤ -4.2
24,C5A A20U G48C U55A U56G C99U A110G U135A,≤ -4.2

row,Variant,polymerase ribozyme fitness (log ratio)
1,C5G A20U G34U C95G,≤ -4.2
2,C5A A21G G46U A52G U56A C93U C95U C108A,≤ -4.2
3,C5G A16U G42C C85G C93G,≤ -4.2
4,C5G A30C G81U A138C U144C,≤ -4.2
5,C5A C57U G81C G94C C108A G143C,≤ -4.2
6,C5A C8U C54G U56A C95A U101G C114U C132G,≤ -4.2
7,C5G A29U C32A C79G C85G C132U A147U,≤ -4.2
8,C5G A26U U56A C85G C108A,≤ -4.2
9,C5A C51U A52G G70A,≤ -4.2
10,C5A U44A A73U C79U C85U G126U,≤ -4.2
11,C5A C8A G62A G68C C87A,≤ -4.2
12,C5A C72U C85U C95U,-0.0103
13,C5A G11C C32G G92U C99A C125G G136U G141U,≤ -4.2
14,C5G A21C A29U U82A G94A G136C U151C,≤ -4.2
15,C5A A89G C95G C132U,-3.03
16,C5G A20G C27A C72U A120U,≤ -4.2
17,C5A C87U,-0.502
18,C5A C87A,≤ -4.2
19,C5A A23U C38U G92C A138U U148G,≤ -4.2
20,C5G A17U U55A G58A U61G A64G C87A C108U,≤ -4.2
21,C5A A28G A29U C51U G92A A120U,≤ -4.2
22,C5A A24G A47G C75G G92C A138G,≤ -4.2
23,C5A A24C G48U G65C C87U C99U A121G,≤ -4.2
24,C5G A19U U31A C96U U102G G140A U145G,≤ -4.2

row,Variant,polymerase ribozyme fitness (log ratio)
1,C5A C27U G62C A89G G92C G128C,≤ -4.2
2,C5A A47C A49C G83C A120G,≤ -4.2
3,C5A U55G G68C,≤ -4.2
4,C5A G46C U77G A142C,≤ -4.2
5,C5A U6G G46A U56A U82C C93A A107G C125U G136U,≤ -4.2
6,C5A A37C A47C C79U C85U G126C U135A A138G,≤ -4.2
7,C5A G34A G67A G71A C95G C149A,≤ -4.2
8,C5A C36A U45G U55A U61A G62U A66U C108G C149U A150G,≤ -4.2
9,C5A C93U C105U C149G,-3.96
10,C5A A30U G84C C85G A137C A147G,≤ -4.2
11,C5A G94U C95A C123A U135C,-3.89
12,C5A U9C C85A,-2.68
13,C5G A30G C36U A49G U56G C87A,≤ -4.2
14,C5A U6G A40G C54A G94C A115U G140U,≤ -4.2
15,C5A C18G A40U,-0.118
16,C5A C14G A37U A52C C85G C99U G140U,≤ -4.2
17,C5G A39G C51U A106G,≤ -4.2
18,C5A C96U,0.321
19,C5A A23G U33G A66G G83A C87U A113G G124A U127C,-3.78
20,C5G A16U C43G C93G A106U A107U,≤ -4.2
21,C5A C14G G94C G143A,-4.07
22,C5G A17C A30U U55A G58U C69U C95U,≤ -4.2
23,C5A A26U A52G G86A G88C A113U G141A,≤ -4.2
24,C5G A17C A26U A28C C125G A142U,≤ -4.2

row,Variant,polymerase ribozyme fitness (log ratio)
1,C5A U9G C93G C103A C108G A113G A137G,≤ -4.2
2,C5A A26G A52G U78A C96U A98U,≤ -4.2
3,C5G A16G C35U C63A C85U,-1.82
4,C5G A30G G42A C51U G92A C99U G140A,≤ -4.2
5,C5G A30C U61A G143C U151A,≤ -4.2
6,C5G A29G G46U A60G,≤ -4.2
7,C5A A60G G94C G141C A142C,≤ -4.2
8,C5A G68U C96G A97G,≤ -4.2
9,C5A A26G C27U U33G U53A G88U A89C U109G,≤ -4.2
10,C5A A21G G88C,-4.09
11,C5G A30C C36A C79U C93A C105G U134C G143A,≤ -4.2
12,C5A G62C G67C G94A A106U,≤ -4.2
13,C5A A64U,≤ -4.2
14,C5A G59C C96A A98U,-0.127
15,C5A A49G U61A G62C A91G,≤ -4.2
16,C5A U13G G81U G92C U145G,-2.12
17,C5G A21U A37U G83U A89U G94U,≤ -4.2
18,C5A A41C C54U C85A C103A G117A G133C A137U,≤ -4.2
19,C5A G34U G58C C63U C99G C131A,≤ -4.2
20,C5A A28G G34C G74A U82A G86A C93A A97C,≤ -4.2
21,C5G A16G U61G C79A G92C A147G,≤ -4.2
22,C5G A12G C87A G92A,≤ -4.2
23,C5A A20C C35A G62A C76A C96G G140A G143C,≤ -4.2
24,C5G A26C G62C A64C G84U A91C U144G U148A,≤ -4.2

row,Variant,polymerase ribozyme fitness (log ratio)
1,C5G A12U A20U U82G G88C C103G C105A G143C C149U,≤ -4.2
2,C5A C8G C14U C96G C131G,≤ -4.2
3,C5G A23G A49U U77G G86A A137G,≤ -4.2
4,C5A G136A,0.816
5,C5G A23C G68C G81C G83C U101G C118U G141U,≤ -4.2
6,C5G A12G G83A G94A G141C,-4.19
7,C5G A17C U31G C36U C93U C95A A113U U148C,≤ -4.2
8,C5A C18U G86U,-1.4
9,C5A G58A C69U G81C A89U G92A U151A,≤ -4.2
10,C5A U13A A24G U82C G100C,≤ -4.2
11,C5A A29C G71A C96G C116U U139C,≤ -4.2
12,C5A U13G U53A C93G,≤ -4.2
13,C5A C93U C108A C125A,≤ -4.2
14,C5A G86U A107G G152A,≤ -4.2
15,C5G A19U A91G A113G,≤ -4.2
16,C5A G83U C93U A113C A122C,≤ -4.2
17,C5G A22U A30U C63A C95G A122U G133U,≤ -4.2
18,C5A A113U,-2.74
19,C5A C27G C54U A73G G83A G88C,≤ -4.2
20,C5G A22U A60G G70A C96U,≤ -4.2
21,C5A A23U A52G,≤ -4.2
22,C5A A52U C54A U55A C76U C87G,≤ -4.2
23,C5A U9G C63U A64G G83C,≤ -4.2
24,C5G A29C G70C C118A C129G A142C,≤ -4.2

row,Variant,polymerase ribozyme fitness (log ratio)
1,C5A G48A C63A C87G C105A A113G C125U C129G A150U,≤ -4.2
2,C5G A20C G88C A97U C103A G128C U134C U146C,≤ -4.2
3,C5A C27U G50C C54U C95U A110C C129U,≤ -4.2
4,C5G A20C,-0.472
5,C5A G11U A21C A22U A23G A49U U53G A73G C85U C93A C105G A106U A110U G136A,≤ -4.2
6,C5G A23C G81C G84A C95A,≤ -4.2
7,C5A U6G A23C G50A U53G U55A A64G C87A A89U A115C C123U,≤ -4.2
8,C5A U7C G92C U139G,-1.27
9,C5G A16G A19G A24U A37G G50C G84U A120C G133U,≤ -4.2
10,C5G A20C G74U A113U A120U,≤ -4.2
11,C5A A49G C96A C103A A142C G152U,≤ -4.2
12,C5A A28G C35G A37U C85G C96G C103G U151A,-3.65
13,C5G A16C A40G C63U G92U U102G U109C,≤ -4.2
14,C5G A20U C75A C108G G143U,≤ -4.2
15,C5G A19U U77G C93A G136C U151C,≤ -4.2
16,C5G A24U G81C,-0.313
17,C5G A16G A20G C63A C72G G92U A110G,≤ -4.2
18,C5G A23C A66G C69U A91G C105G A120U,≤ -4.2
19,C5A C10U U13A A17G A40U C76A,≤ -4.2
20,C5G A17G C38U U61C G68U,≤ -4.2
21,C5A C27U C75A A142G U146G,≤ -4.2
22,C5A G71U G80A G84A G100U U104C G143U A150G,≤ -4.2
23,C5G A30G A91U A120G,≤ -4.2
24,C5A U56A G58A C72U C87U U109G G136A U144C,-3.93

row,Variant,polymerase ribozyme fitness (log ratio)
1,C5A A40G U45A U56G C63A A64U A91G,≤ -4.2
2,C5A C32A U56A C85U A113C,≤ -4.2
3,C5A A66G G83A C87U A113G G124A U127C,≤ -4.2
4,C5A A91U A138C U144G C149G,≤ -4.2
5,C5A A20U C35U A91C U101A C105G U145G,≤ -4.2
6,C5A U7C A23U A40C U55G C87U C108G,≤ -4.2
7,C5A A20C A30U U31C A40U C95A C96A,≤ -4.2
8,C5A C10U G48C C75U U77C C93G A122U A150C,≤ -4.2
9,C5G A28U A40C A41C C79G G94U C96A A142U G143U,≤ -4.2
10,C5A C87U C129G A142U,≤ -4.2
11,C5A U45G C85U A115U G141U,-3.86
12,C5A U13C G25U A47G C76G A107U C125G,≤ -4.2
13,C5A C76U G84U C125U G141U,-3.64
14,C5A A20U G67A U77A G81A A97G C118G G140A A142U,≤ -4.2
15,C5A U109G G124C C131G,≤ -4.2
16,C5A A29U G71C A91C C95A C103A U111G A122C G133C G140U,≤ -4.2
17,C5A A137G U144A A150U,≤ -4.2
18,C5A A21C C69A A73C G84U U109C C118A,≤ -4.2
19,C5A C93G,-2.32
20,C5A A37U C75A C87G,≤ -4.2
21,C5A C93G C95U C103G G143C U144G,≤ -4.2
22,C5A A21U A28U C93G C96U A110U,≤ -4.2
23,C5A C8G G50C A52G G62A G74U G86C C116U,≤ -4.2

# From the RNAGym collection of RNA variant scans (doi:10.1073/pnas.2313332121)
